# The list shows a part of the results.
# Experiments:
# Assay in all cases: glycan array binding signal (z-score within array); higher = stronger binding
# Settings in all cases: glycan notation: IUPAC condensed, linker removed
# [1] = target: Man(a1-2)Man(a1-2)Man(a1-3)Man
# How it was run: (§1)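 Glycan array binding is given as a within-array Z-score, which can be read as non-binding when negative. The arrays, 3228 of them, came from the Consortium for Functional Glycomics database and were retained only where the protein sequence was available. Z-scores were averaged across arrays of the same protein sequence at different concentrations or buffers and across linkers.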
# [2] = target: Man(a1-2)Man(a1-2)Man(a1-6)[Man(a1-3)]Man
# How it was run: as §1
# Man(a1-2)Man(a1-3)Man = target: Man(a1-2)Man(a1-3)Man
# How it was run: as §1
# [3] = target: Man(a1-2)Man(a1-3)[Man(a1-2)Man(a1-6)]Man
# How it was run: as §1
# [4] = target: Man(a1-2)Man(a1-3)[Man(a1-2)Man(a1-6)]Man(a1-6)[Man(a1-2)Man(a1-2)Man(a1-3)]Man
# How it was run: as §1
# [5] = target: Man(a1-2)Man(a1-3)[Man(a1-2)Man(a1-6)]Man(a1-6)[Man(a1-2)Man(a1-2)Man(a1-3)]Man(b1-4)GlcNAc(b1-4)GlcNAc
# How it was run: as §1
# [6] = target: Man(a1-2)Man(a1-3)[Man(a1-6)]Man(a1-6)[Man(a1-2)Man(a1-3)]Man(b1-4)GlcNAc(b1-4)GlcNAc
# How it was run: as §1
# [7] = target: Man(a1-2)Man(a1-6)[Man(a1-3)]Man(a1-6)[Man(a1-2)Man(a1-2)Man(a1-3)]Man
# How it was run: as §1
# [8] = target: Man(a1-2)Man(a1-6)[Man(a1-3)]Man(a1-6)[Man(a1-2)Man(a1-2)Man(a1-3)]Man(b1-4)GlcNAc(b1-4)GlcNAc
# How it was run: as §1
# Man(a1-3)[Man(a1-6)]Man = target: Man(a1-3)[Man(a1-6)]Man
# How it was run: as §1
# [9] = target: Man(a1-3)[Man(a1-6)]Man(a1-6)[Man(a1-2)Man(a1-3)]Man(b1-4)GlcNAc(b1-4)GlcNAc
# How it was run: as §1
# [10] = target: Man(a1-3)[Man(a1-6)]Man(a1-6)[Man(a1-3)]Man
# How it was run: as §1
# [11] = target: Man(a1-3)[Man(a1-6)]Man(a1-6)[Man(a1-3)]Man(b1-4)GlcNAc(b1-4)GlcNAc
# How it was run: as §1
# [12] = target: Man(a1-3)[Man(a1-6)]Man(b1-4)GlcNAc(b1-4)GlcNAc
# How it was run: as §1
# [13] = target: Man(a1-3)[Man(a1-6)]Man(b1-4)GlcNAc(b1-4)[Fuc(a1-6)]GlcNAc
# How it was run: as §1
# Man(a1-6)Man = target: Man(a1-6)Man
# How it was run: as §1
# Man(b1-4)GlcNAc = target: Man(b1-4)GlcNAc
# How it was run: as §1
# MurNAc(b1-4)GlcNAc = target: MurNAc(b1-4)GlcNAc
# How it was run: as §1
# Neu5Ac(a2-3)Gal = target: Neu5Ac(a2-3)Gal
# How it was run: as §1
# [14] = target: Neu5Ac(a2-3)Gal(b1-3)GalNAc
# How it was run: as §1
# [15] = target: Neu5Ac(a2-3)Gal(b1-3)GalNAc(b1-3)Gal(a1-4)Gal(b1-4)Glc
# How it was run: as §1
# [16] = target: Neu5Ac(a2-3)Gal(b1-3)GalNAc(b1-4)[Neu5Ac(a2-3)]Gal(b1-4)Glc
# How it was run: as §1
# [17] = target: Neu5Ac(a2-3)Gal(b1-3)GalNAc(b1-4)[Neu5Ac(a2-8)Neu5Ac(a2-3)]Gal(b1-4)Glc
# How it was run: as §1
# [18] = target: Neu5Ac(a2-3)Gal(b1-3)GalNAc6S
# How it was run: as §1
# [19] = target: Neu5Ac(a2-3)Gal(b1-3)GlcNAc
# How it was run: as §1
# [20] = target: Neu5Ac(a2-3)Gal(b1-3)GlcNAc(b1-2)Man
# How it was run: as §1
# [21] = target: Neu5Ac(a2-3)Gal(b1-3)GlcNAc(b1-2)Man(a1-3)[GlcNAc(b1-4)][Neu5Ac(a2-3)Gal(b1-3)GlcNAc(b1-2)Man(a1-6)]Man(b1-4)GlcNAc(b1-4)GlcNAc
# How it was run: as §1
# [22] = target: Neu5Ac(a2-3)Gal(b1-3)GlcNAc(b1-2)Man(a1-3)[Neu5Ac(a2-3)Gal(b1-3)GlcNAc(b1-2)Man(a1-6)]Man(b1-4)GlcNAc(b1-4)GlcNAc
# How it was run: as §1
# [23] = target: Neu5Ac(a2-3)Gal(b1-3)GlcNAc(b1-3)Gal(b1-3)GlcNAc
# How it was run: as §1
# [24] = target: Neu5Ac(a2-3)Gal(b1-3)GlcNAc(b1-3)Gal(b1-4)GlcNAc
# How it was run: as §1
# [25] = target: Neu5Ac(a2-3)Gal(b1-3)GlcNAc(b1-3)GalNAc
# How it was run: as §1
# [26] = target: Neu5Ac(a2-3)Gal(b1-3)GlcNAc(b1-4)Gal(b1-4)Glc
# How it was run: as §1
# [27] = target: Neu5Ac(a2-3)Gal(b1-3)GlcNAc(b1-6)GalNAc
# How it was run: as §1
# [28] = target: Neu5Ac(a2-3)Gal(b1-3)GlcNAc6S
# How it was run: as §1
# [29] = target: Neu5Ac(a2-3)Gal(b1-3)[Fuc(a1-4)]GlcNAc
# How it was run: as §1
# [30] = target: Neu5Ac(a2-3)Gal(b1-3)[Fuc(a1-4)]GlcNAc(b1-3)Gal(b1-3)[Fuc(a1-4)]GlcNAc
# How it was run: as §1
# [31] = target: Neu5Ac(a2-3)Gal(b1-3)[Fuc(a1-4)]GlcNAc(b1-3)Gal(b1-4)[Fuc(a1-3)]GlcNAc
# How it was run: as §1
# [32] = target: Neu5Ac(a2-3)Gal(b1-3)[GlcNAc(b1-6)]GalNAc
# How it was run: as §1
# [33] = target: Neu5Ac(a2-3)Gal(b1-3)[Neu5Ac(a2-3)Gal(b1-4)]GlcNAc
# How it was run: as §1
# [34] = target: Neu5Ac(a2-3)Gal(b1-3)[Neu5Ac(a2-6)]GalNAc
# How it was run: as §1
# [35] = target: Neu5Ac(a2-3)Gal(b1-3)[Neu5Ac(a2-6)]GlcNAc(b1-3)[Fuc(a1-3)[Gal(b1-4)]GlcNAc(b1-6)]Gal(b1-4)Glc
# How it was run: as §1
# [36] = target: Neu5Ac(a2-3)Gal(b1-3)]Neu5Ac(a2-3)Gal(b1-4)]GlcNAc
# How it was run: as §1
# Neu5Ac(a2-3)Gal(b1-4)Glc = target: Neu5Ac(a2-3)Gal(b1-4)Glc
# How it was run: as §1
# [37] = target: Neu5Ac(a2-3)Gal(b1-4)GlcNAc
# How it was run: as §1
# [38] = target: Neu5Ac(a2-3)Gal(b1-4)GlcNAc(b1-2)Man
# How it was run: as §1
binder,measurement,setting,value
"PA-IL (Pseudomonas aeruginosa), Q05097 (protein) MAWKGEVLANNEAGQVTSIIYNPGDVITIVAAGWASYGPTQKWGPQGDREHPDQGLICHDAFCGALVMKIGNSGTIPVNTGLFRWVAPNNVQGAITLIYNDVPGTYGNNSGSFSVNIGKDQS",glycan array binding signal (z-score),[1],-0.229
same,glycan array binding signal (z-score),[2],-0.218
same,glycan array binding signal (z-score),Man(a1-2)Man(a1-3)Man,-0.226
same,glycan array binding signal (z-score),[3],-0.217
same,glycan array binding signal (z-score),[4],-0.234
same,glycan array binding signal (z-score),[5],-0.191
same,glycan array binding signal (z-score),[6],-0.229
same,glycan array binding signal (z-score),[7],-0.227
same,glycan array binding signal (z-score),[8],-0.244
same,glycan array binding signal (z-score),Man(a1-3)[Man(a1-6)]Man,-0.225
same,glycan array binding signal (z-score),[9],0.053
same,glycan array binding signal (z-score),[10],-0.227
same,glycan array binding signal (z-score),[11],-0.228
same,glycan array binding signal (z-score),[12],-0.211
same,glycan array binding signal (z-score),[13],-0.23
same,glycan array binding signal (z-score),Man(a1-6)Man,-0.219
same,glycan array binding signal (z-score),Man(b1-4)GlcNAc,-0.221
same,glycan array binding signal (z-score),MurNAc(b1-4)GlcNAc,-0.238
same,glycan array binding signal (z-score),Neu5Ac(a2-3)Gal,-0.213
same,glycan array binding signal (z-score),[14],-0.233
same,glycan array binding signal (z-score),[15],-0.229
same,glycan array binding signal (z-score),[16],-0.243
same,glycan array binding signal (z-score),[17],-0.227
same,glycan array binding signal (z-score),[18],-0.231
same,glycan array binding signal (z-score),[19],-0.225
same,glycan array binding signal (z-score),[20],-0.214
same,glycan array binding signal (z-score),[21],-0.239
same,glycan array binding signal (z-score),[22],-0.239
same,glycan array binding signal (z-score),[23],-0.234
same,glycan array binding signal (z-score),[24],-0.228
same,glycan array binding signal (z-score),[25],-0.215
same,glycan array binding signal (z-score),[26],-0.22
same,glycan array binding signal (z-score),[27],-0.238
same,glycan array binding signal (z-score),[28],-0.217
same,glycan array binding signal (z-score),[29],-0.23
same,glycan array binding signal (z-score),[30],-0.216
same,glycan array binding signal (z-score),[31],-0.215
same,glycan array binding signal (z-score),[32],-0.233
same,glycan array binding signal (z-score),[33],-0.218
same,glycan array binding signal (z-score),[34],-0.226
same,glycan array binding signal (z-score),[35],-0.229
same,glycan array binding signal (z-score),[36],-0.237
same,glycan array binding signal (z-score),Neu5Ac(a2-3)Gal(b1-4)Glc,-0.207
same,glycan array binding signal (z-score),[37],-0.228
same,glycan array binding signal (z-score),[38],-0.19

# Source: the supplement of paper PMC8728848
